In this assay the test system is Trichoderma virens ATCC 9645. In words: growth yield (OD600) with compound + IPBC relative to untreated control; higher = less growth inhibition. Conditions: compound concentration: 100 uM, IPBC concentration: 200 ng/ml. Put shortly: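 Plates were read for OD600 at 40 h and 72 h after Trichoderma virens ATCC 9645 spores (15,000 spores ml^−1 in potato dextrose broth) were grown at 30 °C with library compounds at 100 μM final, with or without a biocide at 200 ng ml^−1. Growth is stated relative to the control with neither agent, as the mean of duplicate screens.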

Counter-ions that a name gives are not always drawn. ± gives the standard error. The campaign covered roughly 1,300 compounds. About 130 (10%) showed an effect of 50% or more. Only a part is listed here, and it is no random draw.

With `CN(C)CCCN1c2ccccc2Sc2ccc(C(F)(F)F)cc21` [Triflupromazine hydrochloride] + CCCCNC(=O)OCC#CI [3-iodo-2-propynyl butylcarbamate (IPBC)], the growth yield reads like this: (40 h) 46.4 ± 2.9%; (72 h) 81.3 ± 4.3%.

In the case of `CC(=O)Oc1ccccc1C(=O)Nc1ncc([N+](=O)[O-])s1` [Nitazoxanide] + CCCCNC(=O)OCC#CI [3-iodo-2-propynyl butylcarbamate (IPBC)], the growth yield by setting is: (40 h) 62.1 ± 1.1%; (72 h) 88.7 ± 1.5%.

With `CCN(CC)CCOC(=O)C1(C2CCCCC2)CCCCC1` [Dicyclomine hydrochloride] + CCCCNC(=O)OCC#CI [3-iodo-2-propynyl butylcarbamate (IPBC)], the growth yield runs as follows: (40 h) 82.6 ± 0.64%; (72 h) 93.7 ± 1.1%.

As for `CCCCC(O)c1ccccc1` (stereo not drawn) [Fenipentol] + CCCCNC(=O)OCC#CI [3-iodo-2-propynyl butylcarbamate (IPBC)], the growth yield was found to be 75.3 ± 1.9% (40 h) and 87 ± 3.1% (72 h).

With `C[N+]12CCC(CC1)C(OC(=O)C(O)(c1ccccc1)c1ccccc1)C2` (stereo not drawn) [Clidinium bromide] + CCCCNC(=O)OCC#CI [3-iodo-2-propynyl butylcarbamate (IPBC)], the growth yield was 95.8 ± 11% (40 h) and 95.8 ± 6.6% (72 h).

For `CC(=O)Oc1cc(C(C)C)c(OCCN(C)C)cc1C` [Moxisylyte hydrochoride] + CCCCNC(=O)OCC#CI [3-iodo-2-propynyl butylcarbamate (IPBC)], the growth yield runs as follows: (40 h) 83.87 ± 0.32%; (72 h) 89.56 ± 0.84%.

On to `CC(c1cc2ccccc2s1)N(O)C(N)=O` (stereo not drawn) [Zileuton] + CCCCNC(=O)OCC#CI [3-iodo-2-propynyl butylcarbamate (IPBC)], for which the growth yield came to 89.1 ± 3.3% (40 h) and 90.8 ± 2.1% (72 h).

Take `COc1cc(C)c(/C=C/C(C)=C/C=C/C(C)=C/C(=O)O)c(C)c1C` [Acitretin] + CCCCNC(=O)OCC#CI [3-iodo-2-propynyl butylcarbamate (IPBC)]: the growth yield is 94.7 ± 5.4% (40 h) and 96.4 ± 4.7% (72 h).

With `CC(C)OC(=O)CCC/C=C\C[C@@H]1[C@@H](CC[C@@H](O)CCc2ccccc2)[C@H](O)C[C@@H]1O` [Latanoprost] + CCCCNC(=O)OCC#CI [3-iodo-2-propynyl butylcarbamate (IPBC)], the growth yield by setting is: (40 h) 90.5 ± 1.9%; (72 h) 93 ± 3.9%.

Consider `C[N+]1(C)CCC(=C(c2ccccc2)c2ccccc2)CC1` [Diphemanil methylsulfate] + CCCCNC(=O)OCC#CI [3-iodo-2-propynyl butylcarbamate (IPBC)], for which the growth yield (40 h) turned out to be 84.5 ± 1.6% and the growth yield (72 h) stood at 91.87 ± 0.42%.

As for `NS(=O)(=O)c1cc2c(cc1Cl)NCNS2(=O)=O` [Hydrochlorothiazide] + CCCCNC(=O)OCC#CI [3-iodo-2-propynyl butylcarbamate (IPBC)], the growth yield runs as follows: (40 h) 89.11 ± 0.48%; (72 h) 89.9 ± 2.2%.

Turning to `CN(C)CCc1c[nH]c2ccc(C[C@H]3COC(=O)N3)cc12` [Zolmitriptan] + CCCCNC(=O)OCC#CI [3-iodo-2-propynyl butylcarbamate (IPBC)], the growth yield (40 h) was 93.2 ± 4% and the growth yield (72 h) is 96.3 ± 4%.

Consider `O=c1[nH]c(=O)n([C@H]2C[C@H](O)[C@@H](CO)O2)cc1F` [Floxuridine] + CCCCNC(=O)OCC#CI [3-iodo-2-propynyl butylcarbamate (IPBC)], for which the growth yield (40 h) stood at 4.45% and the growth yield (72 h) was 19.1 ± 2.3%.

As to `CNNCc1ccc(C(=O)NC(C)C)cc1` [Procarbazine hydrochloride] + CCCCNC(=O)OCC#CI [3-iodo-2-propynyl butylcarbamate (IPBC)], the growth yield stood at 93.4 ± 2.5% (40 h) and 90.2 ± 1.3% (72 h).

Consider `COc1cc2nc(N3CCN(C(=O)C4CCCO4)CC3)nc(N)c2cc1OC` (stereo not drawn) [Terazosin hydrochloride] + CCCCNC(=O)OCC#CI [3-iodo-2-propynyl butylcarbamate (IPBC)], for which the growth yield runs as follows: (40 h) 93.1 ± 3.2%; (72 h) 95.02 ± 0.84%.

With `Nc1ccc(S(=O)(=O)Nc2ccc(Cl)nn2)cc1` [Sulfachloropyridazine] + CCCCNC(=O)OCC#CI [3-iodo-2-propynyl butylcarbamate (IPBC)], the growth yield came to 92.1 ± 6% (40 h) and 92.9 ± 7.5% (72 h).

`C#C[C@]1(O)CC[C@H]2[C@@H]3[C@H](C)CC4=C(CCC(=O)C4)[C@H]3CC[C@@]21C` [Tibolone] + CCCCNC(=O)OCC#CI [3-iodo-2-propynyl butylcarbamate (IPBC)]: the growth yield by setting is: (40 h) 80.1 ± 2.9%; (72 h) 90.09 ± 0.1%.

For the compound `CO[C@]12C[C@@H](COC(=O)c3cncc(Br)c3)CN(C)[C@@H]1Cc1cn(C)c3cccc2c13` [Nicergoline] + CCCCNC(=O)OCC#CI [3-iodo-2-propynyl butylcarbamate (IPBC)], the growth yield (40 h) was 74.2 ± 8.4% and the growth yield (72 h) is 93 ± 5.3%.

For `CC(=O)OCC(=O)[C@@]1(O)CC[C@H]2[C@@H]3CCC4=CC(=O)C=C[C@]4(C)[C@@]3(F)[C@@H](O)C[C@@]21C` [Isoflupredone acetate] + CCCCNC(=O)OCC#CI [3-iodo-2-propynyl butylcarbamate (IPBC)], the growth yield by setting is: (40 h) 87.8 ± 2.1%; (72 h) 91.7 ± 1.1%.

In the case of `COc1cc(C(=O)N2CCOCC2)cc(OC)c1OC` [Trimetozine] + CCCCNC(=O)OCC#CI [3-iodo-2-propynyl butylcarbamate (IPBC)], the growth yield came to 110 ± 8.4% (40 h) and 103 ± 7.5% (72 h).

With `CCC(=O)[C@@]1(C)[C@H](C)C[C@H]2[C@@H]3CCC4=CC(=O)C=C[C@]4(C)[C@H]3[C@@H](O)C[C@@]21C` [Rimexolone] + CCCCNC(=O)OCC#CI [3-iodo-2-propynyl butylcarbamate (IPBC)], the growth yield turned out to be 102 ± 6.7% (40 h) and 99.1 ± 7.7% (72 h).

Consider `CC(=O)Nc1c(I)c(NC(C)=O)c(I)c(C(=O)O)c1I` [Diatrizoic acid dihydrate] + CCCCNC(=O)OCC#CI [3-iodo-2-propynyl butylcarbamate (IPBC)], for which the growth yield (40 h) stood at 87.52 ± 0.48% and the growth yield (72 h) came to 89.5 ± 1.8%.

Regarding `CN(N=O)C(=O)N[C@@H](C=O)[C@@H](O)[C@H](O)[C@H](O)CO` [Streptozotocin] + CCCCNC(=O)OCC#CI [3-iodo-2-propynyl butylcarbamate (IPBC)], the growth yield (40 h) was found to be 102 ± 6% and the growth yield (72 h) was 105 ± 6.1%.

`O=C(N/N=C/c1ccc([N+](=O)[O-])o1)c1ccc(O)cc1` [Nifuroxazide] + CCCCNC(=O)OCC#CI [3-iodo-2-propynyl butylcarbamate (IPBC)]: the growth yield was found to be 85.8 ± 7.9% (40 h) and 87.6 ± 3.5% (72 h).

In the case of `CC(C)C[C@H](CN)CC(=O)O` [Pregabalin] + CCCCNC(=O)OCC#CI [3-iodo-2-propynyl butylcarbamate (IPBC)], the growth yield turned out to be 85.3 ± 0.79% (40 h) and 89.14 ± 0.21% (72 h).

In the case of `CC(C)(O/N=C(\C(=O)N[C@@H]1C(=O)N2C(C(=O)[O-])=C(C[n+]3ccccc3)CS[C@H]12)c1csc(N)n1)C(=O)O` [Ceftazidime pentahydrate] + CCCCNC(=O)OCC#CI [3-iodo-2-propynyl butylcarbamate (IPBC)], the growth yield runs as follows: (40 h) 90.7 ± 0.79%; (72 h) 95.75 ± 0.52%.

Regarding `Cc1c(Cl)cccc1Nc1ncccc1C(=O)O` [Clonixin Lysinate] + CCCCNC(=O)OCC#CI [3-iodo-2-propynyl butylcarbamate (IPBC)], the growth yield (40 h) is 79.4 ± 5.7% and the growth yield (72 h) was 95 ± 3.6%.

In the case of `CC(C)(C)NCC(O)c1ccccc1Cl` (stereo not drawn) [Tulobuterol] + CCCCNC(=O)OCC#CI [3-iodo-2-propynyl butylcarbamate (IPBC)], the growth yield is, setting by setting: (40 h) 101 ± 5.7%; (72 h) 104 ± 7%.

With `C[C@H]1[C@H](NC(=O)/C(=N\OC(C)(C)C(=O)O)c2csc(N)n2)C(=O)N1S(=O)(=O)O` [Aztreonam] + CCCCNC(=O)OCC#CI [3-iodo-2-propynyl butylcarbamate (IPBC)], the growth yield is 87.52 ± 0.48% (40 h) and 95.86 ± 0.42% (72 h).

With `CCc1c2c(nc3ccc(OC(=O)N4CCC(N5CCCCC5)CC4)cc13)-c1cc3c(c(=O)n1C2)COC(=O)[C@]3(O)CC` [Irinotecan hydrochloride trihydrate] + CCCCNC(=O)OCC#CI [3-iodo-2-propynyl butylcarbamate (IPBC)], the growth yield came to 91.7 ± 2.4% (40 h) and 98.6 ± 2.9% (72 h).

Take `CS(=O)(=O)Nc1ccc([N+](=O)[O-])cc1Oc1ccccc1` [Nimesulide] + CCCCNC(=O)OCC#CI [3-iodo-2-propynyl butylcarbamate (IPBC)]: the growth yield runs as follows: (40 h) 75.1 ± 1.8%; (72 h) 89.5 ± 2%.

For `CCn1cc(C(=O)O)c(=O)c2cc(F)c(N3CCNC(C)C3)c(F)c21` (stereo not drawn) [Lomefloxacin hydrochloride] + CCCCNC(=O)OCC#CI [3-iodo-2-propynyl butylcarbamate (IPBC)], the growth yield runs as follows: (40 h) 87.4 ± 8.3%; (72 h) 96.3 ± 6.5%.

With `CNC(=C[N+](=O)[O-])NCCSCc1csc(CN(C)C)n1` [Nizatidine] + CCCCNC(=O)OCC#CI [3-iodo-2-propynyl butylcarbamate (IPBC)], the growth yield (40 h) was 88.31 ± 0.64% and the growth yield (72 h) is 93.86 ± 0.32%.

With `CC(C)CN(C[C@@H](O)[C@H](Cc1ccccc1)NC(=O)O[C@H]1CCOC1)S(=O)(=O)c1ccc(N)cc1` [Amprenavir] + CCCCNC(=O)OCC#CI [3-iodo-2-propynyl butylcarbamate (IPBC)], the growth yield (40 h) came out at 129 ± 5.2% and the growth yield (72 h) is 124 ± 2.1%.

As for `C[C@]12C=CC(=O)C=C1CC[C@@H]1[C@@H]2C(=O)C[C@@]2(C)[C@H]1CC[C@]2(O)C(=O)CO` [Prednisone] + CCCCNC(=O)OCC#CI [3-iodo-2-propynyl butylcarbamate (IPBC)], the growth yield is 90.9 ± 1.9% (40 h) and 91.5 ± 1.3% (72 h).

As for `C[C@]12Cc3c[nH]nc3C[C@@H]1CC[C@@H]1[C@@H]2CC[C@@]2(C)[C@H]1CC[C@]2(C)O` [Stanozolol] + CCCCNC(=O)OCC#CI [3-iodo-2-propynyl butylcarbamate (IPBC)], the growth yield is 91.02 ± 0.16% (40 h) and 95.9% (72 h).

Turning to `C[C@@H]1CN(c2c(F)c(N)c3c(=O)c(C(=O)O)cn(C4CC4)c3c2F)C[C@H](C)N1` [Sparfloxacin] + CCCCNC(=O)OCC#CI [3-iodo-2-propynyl butylcarbamate (IPBC)], the growth yield by setting is: (40 h) 83.4 ± 2.1%; (72 h) 86.8 ± 1.9%.

Turning to `CCn1cc(C(=O)O)c(=O)c2cc(F)c(N3CCN(C)CC3)cc21` [Pefloxacine] + CCCCNC(=O)OCC#CI [3-iodo-2-propynyl butylcarbamate (IPBC)], the growth yield runs as follows: (40 h) 98 ± 14%; (72 h) 98.5 ± 10%.

With `CC(C)NCC(O)c1ccc(NS(C)(=O)=O)cc1` (stereo not drawn) [Sotalol hydrochloride] + CCCCNC(=O)OCC#CI [3-iodo-2-propynyl butylcarbamate (IPBC)], the growth yield was found to be 107 ± 1.8% (40 h) and 103 ± 2.7% (72 h).

(Values after the supplement of paper PMC8007513.)
